For 38 molecules, reporter virus infection results are on record in the supplement of paper PMC4495339.

Where a name gives a salt, the structure may show the parent alone. The list shows a part of the results. Reporter virus signal in Vero cells at 10 µM drug, 24 h, as % of DMSO wells; lower = more inhibition (cell loss is not separated). No active / inactive call. One pass, one plate of the library.

The assay relates to Rift Valley fever virus MP-12 vaccine strain (luciferase reporter) in Vero cells. The experiment in a line: reporter virus infection (Renilla luciferase) relative to DMSO control (% of DMSO); higher = less inhibition of virus replication. The settings on record: 10 µM; time (h post infection): 24. The method, then: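 Vero cells were pretreated for 1 h with 10 µM drug and kept in drug after infection with the reporter virus; luciferase at 24 h as % of DMSO wells. One pass, one plate of the library.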
The molecule `C#C[C@]1(O)CC[C@H]2[C@@H]3CCC4=CC(=O)CC[C@@H]4[C@H]3CC[C@@]21CC` [Levonorgestrel (Levonelle)] yielded a reporter virus infection of 105.

Consider `CCCC(CCC)C(=O)O` [Divalproex sodium], for which the reporter virus infection was determined as 107.

`Nc1nc(=O)n([C@@H]2CS[C@H](CO)O2)cc1F` [Emtricitabine (Emtriva)] showed a reporter virus infection of 89.

On to `C#C[C@]1(O)CC[C@H]2[C@@H]3CCc4cc(O)ccc4[C@H]3CC[C@@]21C` [Ethinyl Estradiol], for which the reporter virus infection stood at 68.3.

With `C[C@H](CCC(=O)O)[C@H]1CC[C@H]2[C@@H]3[C@@H](O)C[C@@H]4C[C@H](O)CC[C@]4(C)[C@H]3CC[C@]12C` [Ursodiol (Actigal Urso)], the reporter virus infection amounted to 99.1.

With `Cc1cnc(C(=O)NCCc2ccc(S(=O)(=O)NC(=O)NC3CCCCC3)cc2)cn1` [Glipizide (Glucotrol)], the reporter virus infection was found to be 94.8.

As to `CN(C/C=C/C#CC(C)(C)C)Cc1cccc2ccccc12` [Terbinafine (Lamisil, Terbinex)], the reporter virus infection amounted to 82.8.

`NC(=O)N1c2ccccc2C=Cc2ccccc21` [Carbamazepine (Carbatrol)]: the reporter virus infection is 88.3.

`NC(=O)N/N=C/c1ccc([N+](=O)[O-])o1` [Nitrofurazone (Nitrofural)]: the reporter virus infection was 44.4.

`Cc1nc2n(c(=O)c1CCN1CCC(c3noc4cc(F)ccc34)CC1)CCCC2` [Risperidone (Risperdal)] gave a reporter virus infection of 66.1.

As for `O=c1[nH]cnc2[nH]ncc12` [Allopurinol Sodium (Aloprim)], the reporter virus infection was 89.7.

Molecule `COC(=O)[C@@H]1CC2=CC(=O)CC[C@]2(C)[C@@]23O[C@@H]2C[C@@]2(C)[C@@H](CC[C@@]24CCC(=O)O4)[C@H]13` [Eplerenone] yielded a reporter virus infection of 84.1.

For the molecule `Cc1ccc(C)c(OCCCC(C)(C)C(=O)O)c1` [Gemfibrozil (Lopid)], the reporter virus infection was 100.

`N[C@@H](Cc1ccc(O)c(O)c1)C(=O)O` [Levodopa (Sinemet)]: the reporter virus infection was 93.2.

On to `CC(C)(C)C(=O)OCOP(=O)(COCCn1cnc2c(N)ncnc21)OCOC(=O)C(C)(C)C` [Adefovir Dipivoxil (Preveon, Hepsera)], for which the reporter virus infection stood at 34.2.

As for `CCN(CC)C(=S)SSC(=S)N(CC)CC` [Disulfiram (Antabuse)], the reporter virus infection stood at 85.8.

For `Clc1ccccc1C(c1ccccc1)(c1ccccc1)n1ccnc1` [Clotrimazole (Canesten)], the reporter virus infection is 36.6.

Molecule `C[C@H](N[C@@H](CCc1ccccc1)C(=O)O)C(=O)N1CCC[C@H]1C(=O)O` [Enalaprilat dihydrate] yielded a reporter virus infection of 79.

Take `CS(=O)(=O)OCCCCOS(C)(=O)=O` [Busulfan (Myleran, Busulfex)]: the reporter virus infection came to 82.9.

In the case of `CCC(C)(C)c1ccc(CC(C)CN2C[C@@H](C)O[C@@H](C)C2)cc1` (stereo partly drawn) [Amorolfine Hydrochloride], the reporter virus infection stood at 107.

For the molecule `NS(=O)(=O)c1cc2c(cc1Cl)NCNS2(=O)=O` [Hydrochlorothiazide], the reporter virus infection is 101.

For `COc1ccc2c(c1)c(CC(=O)O)c(C)n2C(=O)c1ccc(Cl)cc1` [Indomethacin (Indocid, Indocin)], the reporter virus infection is 117.

Turning to `Cn1c(=O)c2[nH]cnc2n(C)c1=O` [Aminophylline (Truphylline)], the reporter virus infection came to 74.2.

Regarding `Oc1ccc(OCc2ccccc2)cc1` [Monobenzone (Benoquin)], the reporter virus infection is 74.1.

For `C[C@]12C=CC(=O)C=C1CC[C@@H]1[C@@H]2C(=O)C[C@@]2(C)[C@H]1CC[C@]2(O)C(=O)CO` [Prednisone (Adasone)], the reporter virus infection was determined as 73.

For `CC1(C)O[C@@H]2C[C@H]3[C@@H]4CCC5=CC(=O)C=C[C@]5(C)[C@@]4(F)[C@@H](O)C[C@]3(C)[C@]2(C(=O)CO)O1` [Triamcinolone Acetonide], the reporter virus infection stood at 69.9.

Molecule `Nc1nc2ccc(OC(F)(F)F)cc2s1` [Riluzole (Rilutek)] yielded a reporter virus infection of 67.4.

Turning to `COc1ccc(Cl)cc1C(=O)NCCc1ccc(S(=O)(=O)NC(=O)NC2CCCCC2)cc1` [Glyburide (Diabeta)], the reporter virus infection stood at 101.

The molecule `Cc1cn([C@@H]2C[C@@H](O)[C@H](CO)O2)c(=O)[nH]c1=O` [Telbivudine (Sebivo, Tyzeka)] yielded a reporter virus infection of 76.

Consider `Nc1ncnc2c1ncn2[C@@H]1O[C@H](CO)[C@@H](O)[C@H]1O` [Adenosine (Adenocard)], for which the reporter virus infection is 78.9.

Molecule `CN(C)CCc1c[nH]c2ccc(C[C@H]3COC(=O)N3)cc12` [Zolmitriptan (Zomig)] showed a reporter virus infection of 73.4.

On to `Nc1ccn([C@@H]2O[C@H](CO)[C@@H](O)[C@@H]2O)c(=O)n1` [Cytarabine], for which the reporter virus infection was found to be 60.2.

As for `CC[C@H]1OC(=O)[C@H](C)[C@@H](O[C@H]2C[C@@](C)(OC)[C@@H](O)[C@H](C)O2)[C@H](C)[C@@H](O[C@@H]2O[C@H](C)C[C@H](N(C)C)[C@H]2O)[C@](C)(O)C[C@@H](C)C(=O)[C@H](C)[C@@H](O)[C@]1(C)O` [Erythromycin (E-Mycin)], the reporter virus infection was 78.5.

`NS(=O)(=O)c1cc2c(cc1Cl)N=CNS2(=O)=O` [Chlorothiazide] came in with a reporter virus infection of 94.8.

On to `CC(=O)Oc1ccccc1C(=O)Nc1ncc([N+](=O)[O-])s1` [Nitazoxanide (Alinia, Annita)], for which the reporter virus infection is 26.5.

In the case of `CCCNC(C)C(=O)Nc1ccccc1C` (stereo not drawn) [Prilocaine], the reporter virus infection amounted to 26.8.

`CN1C(C(=O)Nc2ccccn2)=C(O)c2ccccc2S1(=O)=O` [Piroxicam (Feldene)] returned a reporter virus infection of 100.

In turn, `O=c1[nH]cnc2c1ncn2[C@H]1CC[C@@H](CO)O1` [Didanosine (Videx)] showed a reporter virus infection of 79.4.
